Source: the BET-seq Pho4 binding data (Le et al. 2018)
Some of the results follow. Values were computed here from the reads of four pooled replicates and scatter widely.

Target: T1, Pho4 (S. cerevisiae) (UniProt P07270)
T1 sequence: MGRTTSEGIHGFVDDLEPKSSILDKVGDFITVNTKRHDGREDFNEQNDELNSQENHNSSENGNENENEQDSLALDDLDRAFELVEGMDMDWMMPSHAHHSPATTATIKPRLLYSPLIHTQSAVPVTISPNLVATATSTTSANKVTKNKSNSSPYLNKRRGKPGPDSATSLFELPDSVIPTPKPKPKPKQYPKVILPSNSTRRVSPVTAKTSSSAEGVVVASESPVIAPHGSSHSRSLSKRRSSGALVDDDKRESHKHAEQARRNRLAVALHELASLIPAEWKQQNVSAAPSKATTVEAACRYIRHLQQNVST
Assay: relative binding free energy (BET-seq); higher = weaker binding
Conditions: reference: library average

Sequence | relative binding free energy
ACATTCACGTGCGGGG | 0.19 kcal/mol
GGATACACGTGGTCGG | 0.04 kcal/mol
AATATCACGTGGATAG | 0.32 kcal/mol
TGTGTCACGTGTGCAG | 0.03 kcal/mol
TAAGGCACGTGGTCGG | -0.21 kcal/mol
GGGCCCACGTGTGGGA | -0.01 kcal/mol
TGAGGCACGTGTATGT | -0.12 kcal/mol
TGCTTCACGTGGGATT | 0.08 kcal/mol
TTTATCACGTGAAATG | 0.51 kcal/mol
TGCAGCACGTGGGCTG | -0.27 kcal/mol
TGTTCCACGTGCTAGG | -0.1 kcal/mol
TATAACACGTGTGGTG | -0.09 kcal/mol
GTAGGCACGTGCGCGT | -0.17 kcal/mol
TTTGTCACGTGAGATG | 0.25 kcal/mol
TTCATCACGTGGGTGA | 0.03 kcal/mol
GATTTCACGTGTGATT | 0.34 kcal/mol
TGGTGCACGTGCTGAG | -0.12 kcal/mol
GATGGCACGTGGAGGC | -0.18 kcal/mol
GGTGACACGTGAATAG | 0.38 kcal/mol
TCTTTCACGTGGTGAA | 0.2 kcal/mol
CTTGTCACGTGAGGTA | 0.1 kcal/mol
TCGGTCACGTGCTTGA | 0.11 kcal/mol
AGGGGCACGTGAGTCT | 0.24 kcal/mol
TTGGGCACGTGGGAGA | -0.23 kcal/mol
TGCGTCACGTGAAGTG | 0.1 kcal/mol
ATGAACACGTGAGGTT | 0.27 kcal/mol

Sequence | relative binding free energy
TTTAGCACGTGAGCTG | 0.24 kcal/mol
TGAGTCACGTGGCGCG | -0.07 kcal/mol
TAGTGCACGTGACTTT | 0.13 kcal/mol
AACTGCACGTGGGGTG | -0.36 kcal/mol
TCGGTCACGTGTTGGC | 0.07 kcal/mol
ATTGTCACGTGCAGAT | 0.07 kcal/mol
TGGTGCACGTGCGTTG | -0.08 kcal/mol
TAGTCCACGTGGGGCG | -0.04 kcal/mol
TTTGACACGTGCTTTA | -0.11 kcal/mol
TGGTACACGTGGTACG | 0.03 kcal/mol
GTTCACACGTGGATGT | 0.14 kcal/mol
TTCGACACGTGGAAGG | 0.17 kcal/mol
TCATGCACGTGGTGTA | -0.13 kcal/mol
ATGAGCACGTGTGGTG | -0.12 kcal/mol
TCTGGCACGTGGTGGA | -0.07 kcal/mol
CAGGGCACGTGTAGAG | 0.04 kcal/mol
TACGTCACGTGTCGTT | 0.02 kcal/mol
TTCGGCACGTGATTCG | 0.11 kcal/mol
CGGGACACGTGAGGCG | 0.13 kcal/mol
TGTTGCACGTGTCAAT | -0.03 kcal/mol
ATGAGCACGTGGTCTT | -0.21 kcal/mol
ATTAGCACGTGAACGT | 0.1 kcal/mol
GGGAGCACGTGTGCGG | -0.03 kcal/mol
GTCGACACGTGTGGGG | 0.15 kcal/mol
TTGAGCACGTGCATGG | -0.08 kcal/mol
GAAGACACGTGGATGG | 0.18 kcal/mol

Sequence | relative binding free energy
GTGATCACGTGTATTG | 0.07 kcal/mol
GGGGACACGTGGGGCT | -0.01 kcal/mol
GGGCGCACGTGGCGAT | -0.03 kcal/mol
GCTGACACGTGGTGTT | -0.11 kcal/mol
ATGTGCACGTGTTCAG | -0.04 kcal/mol
AGCGGCACGTGCGGGG | -0.25 kcal/mol
GGCCGCACGTGGGGAG | -0.27 kcal/mol
GTATCCACGTGTAGTT | 0.17 kcal/mol
TATAACACGTGAGTGA | 0.24 kcal/mol
TCGTGCACGTGAGGTT | 0.33 kcal/mol
TACGGCACGTGTGGTT | -0.01 kcal/mol
CAGGACACGTGCTGGG | -0.02 kcal/mol
TATGTCACGTGTCGCG | 0.06 kcal/mol
TTACTCACGTGGGTTA | -0.02 kcal/mol
AGTTTCACGTGGCGAG | 0.22 kcal/mol
TCGAGCACGTGTTTTT | 0.01 kcal/mol
TTGTTCACGTGGGCCG | 0.22 kcal/mol
GGCTACACGTGTGGGT | 0.18 kcal/mol
TAGTGCACGTGGATTC | 0.09 kcal/mol
TCTATCACGTGTTGGA | 0.18 kcal/mol
TGAGGCACGTGATATT | 0 kcal/mol
GTTTTCACGTGTGGTA | 0.21 kcal/mol
TTACACACGTGTGGAG | 0.07 kcal/mol
AAATTCACGTGGCGTT | 0.24 kcal/mol
ATGCACACGTGAGGGG | 0.1 kcal/mol
CTTAGCACGTGTGGTT | -0.07 kcal/mol

Sequence | relative binding free energy
TCATTCACGTGGTTTT | 0.21 kcal/mol
TTGTACACGTGGAAGA | 0.18 kcal/mol
CTATACACGTGTTGAG | 0.17 kcal/mol
GAGCGCACGTGATGGG | 0.27 kcal/mol
TTGGCCACGTGCTTGT | -0.19 kcal/mol
CGGTTCACGTGCGTGT | 0.1 kcal/mol
TGATGCACGTGTTACT | -0.07 kcal/mol
TTCAACACGTGAGGGG | 0.21 kcal/mol
TGACGCACGTGGAGTT | -0.01 kcal/mol
TGTTCCACGTGTTAGG | 0.1 kcal/mol
CATGGCACGTGATTTG | 0.18 kcal/mol
TGTAGCACGTGTGGAC | 0.13 kcal/mol
GTTTACACGTGCGTAT | 0.16 kcal/mol
TAGTACACGTGGTGTA | -0.21 kcal/mol
TATTTCACGTGTCGGC | 0.28 kcal/mol
AGGGTCACGTGCGGAA | 0.11 kcal/mol
GTAAGCACGTGTATTG | -0.01 kcal/mol
GGAGTCACGTGTAGTC | 0.32 kcal/mol
TTTCACACGTGTGTAA | 0.09 kcal/mol
GATGTCACGTGTACGT | 0.09 kcal/mol
TAGTCCACGTGGTAGT | 0.14 kcal/mol
GTGGCCACGTGCTTAG | 0.05 kcal/mol
CATAGCACGTGGAGAT | 0.09 kcal/mol
AGGAGCACGTGGGGAC | -0.15 kcal/mol
TGTAACACGTGGGTGC | -0.25 kcal/mol
TATTTCACGTGAATCT | 0.36 kcal/mol

Sequence | relative binding free energy
TGCATCACGTGGTATA | 0.31 kcal/mol
AGAATCACGTGTTTAG | 0.13 kcal/mol
TAGAGCACGTGTTTTT | -0.02 kcal/mol
TGATGCACGTGTATTG | -0.02 kcal/mol
TTGTGCACGTGGTGTA | -0.18 kcal/mol
GAGTTCACGTGCTTGG | 0.32 kcal/mol
TGAAACACGTGGGATA | 0.08 kcal/mol
TGGACCACGTGGGCGG | -0.14 kcal/mol
TGGGACACGTGGTTTA | 0.02 kcal/mol
CAGGTCACGTGAAGTG | 0.27 kcal/mol
CGTGGCACGTGCGTAG | -0.23 kcal/mol
GTTCGCACGTGGGTTC | -0.04 kcal/mol
GAGAGCACGTGAGTTG | 0.24 kcal/mol
GGTGTCACGTGCCTGG | 0.08 kcal/mol
TTTAACACGTGGTACG | -0.04 kcal/mol
GAAAACACGTGTGTGT | 0.09 kcal/mol
ATTAGCACGTGTCGTG | -0.22 kcal/mol
CGGTGCACGTGGGAGA | -0.11 kcal/mol
CTGTTCACGTGTGGCG | 0.31 kcal/mol
TGAGGCACGTGGCGTG | -0.24 kcal/mol
GTGTACACGTGCGTGG | -0.09 kcal/mol
ATGCTCACGTGTGAGG | 0.28 kcal/mol
GGCTGCACGTGGTCTT | -0.03 kcal/mol
GGTAGCACGTGGGCGC | -0.12 kcal/mol
TGTGTCACGTGGGGCG | -0.01 kcal/mol
GGAGGCACGTGATTTT | 0.08 kcal/mol

Sequence | relative binding free energy
GGAGTCACGTGGTAAA | 0.16 kcal/mol
TGCGTCACGTGAACTT | 0.36 kcal/mol
AATTTCACGTGTAGAG | 0.29 kcal/mol
AGATGCACGTGCGTTA | -0.03 kcal/mol
AAGTACACGTGATAGG | 0.18 kcal/mol
ATCTGCACGTGGTTTG | -0.23 kcal/mol
AAGAGCACGTGTGAAG | 0.12 kcal/mol
GTATACACGTGTTTTA | 0.04 kcal/mol
AATCTCACGTGTGTAT | 0.23 kcal/mol
AGCAACACGTGGGGGA | -0.09 kcal/mol
AGAGTCACGTGAATGG | 0.31 kcal/mol
TTTGTCACGTGATATC | 0.25 kcal/mol
GGCGCCACGTGGAGTG | -0.15 kcal/mol
GGTTGCACGTGGTCGT | -0.03 kcal/mol
TCTAGCACGTGGTGGG | -0.04 kcal/mol
TGGTACACGTGTTATA | 0.03 kcal/mol
GGGTCCACGTGTGTGG | 0.07 kcal/mol
GTGCACACGTGGGTTT | 0.06 kcal/mol
CACATCACGTGGGGGG | -0.02 kcal/mol
AAAAGCACGTGGGTTT | -0.2 kcal/mol
GTCCTCACGTGTGTTT | 0.2 kcal/mol
TGACGCACGTGGTGTT | -0.24 kcal/mol
GTTGACACGTGCGATT | 0.16 kcal/mol
CATGTCACGTGTAGTT | 0.22 kcal/mol
GAGGCCACGTGTGATG | 0.15 kcal/mol
AGTAGCACGTGGATTT | -0.03 kcal/mol

Sequence | relative binding free energy
TGGATCACGTGTGGGG | 0.25 kcal/mol
GCTTACACGTGTAGGA | 0.33 kcal/mol
GTATACACGTGAGGTG | 0.32 kcal/mol
ATATTCACGTGTAGGA | 0.21 kcal/mol
GTTAACACGTGGTAAT | 0.02 kcal/mol
TCCATCACGTGGTTTG | 0.14 kcal/mol
TGTTTCACGTGTTGCT | 0.24 kcal/mol
AAATTCACGTGGGCTT | 0.16 kcal/mol
AAAGTCACGTGTTGGC | 0 kcal/mol
TCTTACACGTGTAATG | 0.24 kcal/mol
CGGGGCACGTGGTTTA | -0.04 kcal/mol
GGAGTCACGTGATTTA | 0.32 kcal/mol
TTAGCCACGTGGGGTT | -0.17 kcal/mol
TTGGGCACGTGCAATT | -0.11 kcal/mol
TTGGTCACGTGCGCTT | 0.04 kcal/mol
TAACTCACGTGGGATA | 0.26 kcal/mol
TCGGTCACGTGCTTGG | 0.14 kcal/mol
TTCGTCACGTGCGGTG | 0.03 kcal/mol
ACGGGCACGTGGTAGC | -0.12 kcal/mol
GGTGGCACGTGCCGCG | -0.27 kcal/mol
ATAGTCACGTGCGGAT | 0.03 kcal/mol
TACAACACGTGAGGGT | 0.25 kcal/mol
CGTCGCACGTGTAGGG | -0.11 kcal/mol
TGGTGCACGTGAATTA | 0.38 kcal/mol
TTCTGCACGTGTGGGT | 0.06 kcal/mol
GGGTTCACGTGTACAT | 0.18 kcal/mol

Sequence | relative binding free energy
TCAGTCACGTGGAGTT | 0 kcal/mol
GCGGACACGTGGGTGG | -0.1 kcal/mol
GTGATCACGTGTGGCT | 0.17 kcal/mol
GACGTCACGTGGAGAT | 0.21 kcal/mol
TGGGGCACGTGTTGCG | 0.04 kcal/mol
CGGGACACGTGGGGTC | -0.13 kcal/mol
TCATACACGTGTGTTG | -0.06 kcal/mol
CGCTGCACGTGAGTGG | 0.05 kcal/mol
GGGGCCACGTGCCGGG | -0.31 kcal/mol
ACGTTCACGTGGTTAT | 0.26 kcal/mol
ATGACCACGTGTTGGT | -0.14 kcal/mol
TATTGCACGTGCTGAG | -0.12 kcal/mol
GTGGACACGTGGGAGC | -0.11 kcal/mol
AGTTCCACGTGGTCGG | 0 kcal/mol
AAGAGCACGTGTTTTG | -0.07 kcal/mol
GGGGACACGTGGCGAT | -0.08 kcal/mol
TTATTCACGTGGTTAC | 0.17 kcal/mol
GTTAGCACGTGGGTGT | -0.11 kcal/mol
GAGTGCACGTGAGCGT | 0.19 kcal/mol
ATGTGCACGTGGGATA | -0.13 kcal/mol
CATGGCACGTGTCGTG | -0.15 kcal/mol
CGTCGCACGTGAAGGG | 0.18 kcal/mol
GCGGACACGTGGGGAT | 0 kcal/mol
GATTTCACGTGGATTG | 0.31 kcal/mol
TATCACACGTGGGTAT | -0.01 kcal/mol
TGATGCACGTGTATAG | 0.05 kcal/mol

Sequence | relative binding free energy
TTGGGCACGTGATGTC | 0.01 kcal/mol
TGTTACACGTGGTGGC | 0.16 kcal/mol
GGCGGCACGTGTGGTC | 0.12 kcal/mol
TGGGGCACGTGTCGTT | -0.04 kcal/mol
TATGCCACGTGGGTGG | -0.25 kcal/mol
GTGGACACGTGCGTTG | -0.02 kcal/mol
GGTTCCACGTGGAGGT | 0.08 kcal/mol
AGCGTCACGTGTGGCG | 0.1 kcal/mol
AAACGCACGTGGTTGG | -0.21 kcal/mol
GGACTCACGTGGGCGT | 0.01 kcal/mol
GGTCACACGTGTAGTG | 0.13 kcal/mol
GTAGTCACGTGTATAG | 0.12 kcal/mol
GGCGACACGTGGTTGT | 0.02 kcal/mol
ACGTTCACGTGTTGCA | 0.33 kcal/mol
TGCGTCACGTGTTCTG | 0.11 kcal/mol
GTTGACACGTGGACGT | 0.05 kcal/mol
ATAGGCACGTGTGACG | -0.03 kcal/mol
GTATGCACGTGAGTGC | 0.2 kcal/mol
AATTACACGTGGTATG | -0.01 kcal/mol
CTGGACACGTGGGTCG | -0.22 kcal/mol
TGAGTCACGTGGGTCA | -0.11 kcal/mol
CGATTCACGTGGGTGT | 0.17 kcal/mol
